According to article PMC12040169 (PLOS Biology, 2025):
This is one part of the list.

Test system: T1, C. trachomatis L2/434/Bu expressing GFP (CTL2-GFP)
T1 construct: L2/434/Bu GFP intracellular growth in HeLa cells
Parameters: species or system HeLa; C. trachomatis total inclusion area by high-content imaging, normalised to DMSO
Conditions: total inclusion area; 28.5 h, 10 µM; inhibitor
How it was run: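 Following bulk GFP and resorufin fluorescence reads, infected cells were fixed, Hoechst-stained and imaged on a high-content platform. Inclusion total area and number per well served as growth proxies; nuclei counts indicated host viability. MICs were derived as for the fluorescence assay.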

Compound | % of control remaining
COc1ccc(Br)cc1S(=O)(=O)Nc1c(C(=O)O)[nH]c2ccccc12 [CBK049887] | 87.4926
CC(C)C(=O)NC(C)c1nc(-c2ccncc2)n[nH]1 (stereo not shown) [CBK104021] | 101.044
O=C(NCCc1c[nH]c2ccc(Cl)cc12)c1ccc(Br)cc1Cl [CBK159762] | 65.1386
O=C(Nc1nnc(-c2ccccc2)o1)c1nc2ccccc2s1 [CBK287595] | 112.021
O=C(NCc1ccc(F)cc1)c1ccc(=O)n(CC(=O)N2CCC3(CCCCC3)C2)c1 [CBK286021] | 92.7528
COCCNC(=O)Cn1c(-c2cccs2)cc2cccnc21 [CBK282554] | 91.4902
COCCn1ccc(NC(=O)N2CCCC(c3cc(F)ccc3F)C2)n1 (stereo not shown) [CBK305451] | 55.9616
COc1ccc(-c2c(C(F)(F)F)oc3cc(OC(=O)c4cccc(C)c4)ccc3c2=O)cc1OC [CBK263907] | 101.097
CN1CCN(C(=O)c2[nH]c3ccccc3c2NS(=O)(=O)Cc2ccccc2[N+](=O)[O-])CC1 [CBK050059] | 85.7301
COc1cc(Nc2nc(-c3ccccc3F)cn3ccnc23)cc(OC)c1OC [CBK037301] | 87.7237
COc1ccc(CNC(=O)Cn2nnc(-c3ccc(NC(=O)C4CCCCC4)cc3)n2)cc1 [CBK135876] | 85.9653
OCCN1CCN(c2nccnc2-c2cccs2)CC1 [CBK088811] | 89.5176
OC[C@H]1OCC[C@H]1O [CBK201263] | 85.7333
Cc1c(Cl)cccc1S(=O)(=O)Nc1ccsc1C(=O)O [CBK004549] | 100.085
COc1ccc([C@H](O)[C@@H]2CCCN(C(=O)OC(C)(C)C)C2)cc1 [CBK284311] | 81.7532
CS(=O)(=O)N[C@H]1C[C@H]2C(=O)Nc3cc(Cl)ccc3C(=O)N2C1 [CBK289363] | 101.883
CN(C)CCNC(=O)c1ccc2[nH]ccc2c1 [CBK149062] | 89.8032
Nc1ncc(-c2ccoc2)nc1-c1ccc(F)c(Cl)c1 [CBK063982] | 130.186
COCc1cccc(-c2nccnc2OCC(=O)OC)c1 [CBK106976] | 91.3652
Cc1cccc(C(=O)N2CCCC(C)C2)c1 (stereo not shown) [CBK074057] | 82.7936
CC(NC(=O)N(Cc1ccccc1C(F)(F)F)CC(C)(C)CN)c1cccc2ccccc12 (stereo not shown) [CBK002422C] | 44.7798

Compound | % of control remaining
COc1ccccc1CNC(=O)c1cc(-c2ccccc2)nc2ccccc12 [CBK294458] | 109.658
CN(C)CCCN(Cc1cnn(C)c1)Cc1ccco1 [CBK283039] | 88.7432
C[C@H](NC(=O)C1CC(=O)N(c2ccc(F)cc2)C1)C(=O)N1CCC(C(=O)O)CC1 (stereo partly shown) [CBK286733] | 79.5258
CS(=O)(=O)Nc1nccnc1OC1CCN(CCCC#N)CC1 [CBK084276] | 91.2465
Oc1ccc(/C=N/N(Cc2ccccc2)Cc2ccccc2)cc1 [CBK261414] | 77.879
Cc1ccc(N(CC(=O)Nc2cccc3cccnc23)S(=O)(=O)c2ccc(C)cc2)cc1 [CBK262201] | 85.5426
CN(C)S(=O)(=O)c1cccc(C(=O)NCCc2ccccc2)c1 [CBK267793] | 120.1
Cc1cc2cc(CN(CC3CCCO3)C(=O)C3CC3)c(Cl)nc2cc1C (stereo not shown) [CBK109881] | 62.9902
CCN1CC(C(=O)N2CCCC(CN(C)C)C2)CC1=O (stereo not shown) [CBK282064] | 78.7918
O=C(CN1CCCC1=O)NC1(C(F)(F)F)NC(=O)N(c2ccc(F)cc2)C1=O (stereo not shown) [CBK268057] | 103.956
CC(CC(=O)O)CC(=O)N1CCCC1c1nc(-c2ccc(F)cc2)c2ccccn12 (stereo not shown) [CBK046626] | 118.675
Cn1c(SCC(=O)Nc2ccccc2[N+](=O)[O-])nc2ccccc2c1=O [CBK265096] | 91.3492
CC(C)Oc1ccc(C(=O)N2CC(C)C(N3CCOCC3)C2)cn1 (stereo not shown) [CBK304497] | 68.1412
O=C1CC(N2CCN(Cc3ccc4c(c3)OCO4)CC2)C(=O)N1c1cc(Cl)cc(Cl)c1 (stereo not shown) [CBK074554] | 94.8419
Nc1ncc(-c2ccc3c(c2)OCO3)nc1Nc1ccc2[nH]ccc2c1 [CBK063667] | 95.8109
OC(COc1cccc2c1CCCC2)CN1CCC(O)(c2ccc(Br)cc2)CC1 (stereo not shown) [CBK003584] | 89.385
CCn1ncc(CN(C)C(=O)CCC2CCCCN2C)c1C (stereo not shown) [CBK307329] | 63.3802
O=C(Cc1nc(-c2ccncc2)n[nH]1)NC1CCCCC1 [CBK288544] | 91.7579
O=C(O)C/N=C1/CCCc2ccccc2N1 [CBK261809] | 91.8173
Cc1ccccc1NC(=O)COc1ccc(S(=O)(=O)N2CCCC2)cc1Cl [CBK268938] | 102.982
O=C(Nc1ccc2cccc(O)c2n1)c1cc[nH]c1 [CBK122743] | 84.5934

Compound | % of control remaining
CC(C)(O)c1cc(CC2(NCc3ccco3)COC2)no1 [CBK289255] | 110.061
O=C(c1ccncc1)N1CCCn2nc(-c3cccnc3)cc2C1 [CBK288607] | 104.616
O=S(=O)(Nc1ccc2nsnc2c1)c1ccc(Br)cc1C(F)(F)F [CBK062233] | 111.148
OC(CSc1ncnc2sc3c(c12)CCC3)Cn1cccn1 (stereo not shown) [CBK304149] | 43.7924
CC(=O)NC1(c2ccccc2F)CCN(c2ncc(-c3ccco3)c(-c3ccco3)n2)CC1 [CBK286428] | 97.7161
CC(C)c1ccc(S(=O)(=O)NCCC2CCN(Cc3ccccc3)CC2)cc1 [CBK043456] | 57.6525
Cc1nn(C)cc1CN1CCN(C(=S)NCCc2ccccc2)CC1 [CBK267069] | 90.861
Cn1nccc1C1CCN(Cc2ccc(Oc3cnccn3)cc2)CC1 [CBK306400] | 79.8855
S=c1[nH]nc2sc3ccccc3n12 [CBK018156] | 100.194
CN(CC1(C)COC1)C(=O)Cc1cccc2cccnc12 [CBK281963] | 85.5085
O=C(Nc1cnn(C23CC4CC(CC(C4)C2)C3)c1)c1cnn2c(C(F)(F)F)cc(-c3ccco3)nc12 [CBK268538] | 51.0274
Cc1cc(C)nc(N2CCN(CCC(=O)O)CC2)n1 [CBK287272] | 101.055
Cc1nn2c(c1-c1ccno1)CCCCC2 [CBK007505] | 83.3032
O=C(Cn1ncc2cccn2c1=O)NCc1ccc(F)cc1 [CBK283851] | 87.6095
CCSC1=C(C#N)C(=O)NC(c2ccccc2O)S1 (stereo not shown) [CBK293971] | 82.6665
O=C(O)CCC(NC(=O)c1ccc(-c2ccc(F)cc2)s1)C(=O)O (stereo not shown) [CBK295172] | 106.182
O=C(COc1ccc(S(=O)(=O)N2CCCCC2)cc1Cl)Nc1ccc2c(c1)OCCO2 [CBK269540] | 105.77
CC1CCCN(Cc2nc3c(c(=O)n(C)c(=O)n3C)n2CC(N)=O)C1 (stereo not shown) [CBK306064] | 73.2363
CCCCc1c(O)c2ccccc2n(Cc2ccccc2)c1=O [CBK219416] | 104.193
CNS(=O)(=O)c1ccc2c3c(cccc13)C(=O)N2 [CBK287275] | 110.868
CCOc1ccc(-c2cc(C(=O)Nc3cccc(C(=O)O)c3)no2)cc1 [CBK299776] | 81.2106

Compound | % of control remaining
Cc1ccc(NC(=O)CCN2C(=O)c3cccc([N+](=O)[O-])c3C2=O)c(Br)c1 [CBK263172] | 102.712
C=CCNc1nccnc1-c1cccc(O)c1 [CBK088505] | 101.785
O=C(CSc1ccc(Br)cc1)NCc1ccco1 [CBK269701] | 88.8995
CN(C)c1ccc(-n2ncc(-c3ccsc3)n2)cc1 [CBK112845] | 108.953
Cc1ccc(CNC(=O)CSc2nc(N)n[nH]2)cc1 [CBK267914] | 107.278
NC(=O)c1cccc(-c2nccnc2NCCO)c1 [CBK088993] | 115.53
COc1cccc(CNc2ccc(-c3nc4ncccc4o3)cc2)c1OC [CBK269716] | 94.8945
c1ccc(-c2nc3ccccc3nc2N2CCNCC2)cc1 [CBK269574C] | 102.242
Cc1ccc2c(c1)N(CCO)C(C)(C)CC2C (stereo not shown) [CBK006567] | 30.2253
CS(=O)(=O)N1CCN(c2ccc(NC(=O)CSc3nc(-c4ccccc4)cs3)cc2)CC1 [CBK267934] | 104.785
CC(C)(C)SCC(=O)c1ccc2c(c1)CCC(=O)N2 [CBK006168] | 55.9702
Nc1ncc(-c2ccsc2)c2cccnc12 [CBK067580] | 126.488
COc1ccc(-c2csc(CC(=O)O)n2)cc1 [CBK159469] | 94.9338
CC(=O)c1cccc(NC(=O)Cn2ncc(N3CCCC3)c(Cl)c2=O)c1 [CBK304395] | 127.068
CC1(C)CC(NC(=O)C23CCC(C)(c4nc5ccccc5nc42)C3(C)C)CC(C)(C)N1 (stereo not shown) [CBK266559] | 124.017
O=C(CC1SC(NC2CC3C=CC2C3)=NC1=O)NCc1ccccc1 (stereo not shown) [CBK049940] | 77.6409
CCOC(=O)C(CO)NC(=O)c1cncc(Br)c1 (stereo not shown) [CBK263926] | 110.546
O=C1NC/C=C/CC2(CCN(C(=O)c3cccnn3)CC2)C(=O)NCCOc2ccccc21 [CBK292095] | 78.3039
O=S(=O)(Nc1cccc(Br)c1)c1ccc(OC(F)(F)F)cc1 [CBK044369] | 104.772
